The RNAGym collection of RNA variant scans (doi:10.1073/pnas.2313332121)
This sample is rich in variants without activity.

B1: TPR 5TU (parent)
chain: GGAUCUUCUCGAUCUAACAAAAAAGACAAAUCUGCCACAAAGCUUGAGAGCAUCUUCGGAUGCAGAGGCGGCAGCCUUCGGUGGCGCGAUAGCGCCAACGUUCUCAACUAUGACACGCAAAACGCGUGCUCCGUUGAAUGGAGUUUAUCAUG

Variants of: B1
Test: polymerase ribozyme fitness, log enrichment relative to wild type (log ratio); higher = more active; in vitro selection for triplet polymerase activity
How it was run: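 Fitness measures genotype enrichment against wild-type enrichment on a logarithmic scale, with inverse-variance-weighted averaging of replicates. The logarithm is base 2, and genotypes were kept only with ≥10 input reads and ≥1 read per output in Illumina sequencing. The sequenced libraries came from one triplicate in vitro selection round, including frozen incubation at −7 °C, of PCR-built, transcribed mutant libraries of each subunit of a heterodimeric triplet polymerase ribozyme.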

Variant | polymerase ribozyme fitness (log ratio)
A12C A23C G58A G68C | ≤ -4.2
G11U A22G C54U G65A C76U A98U C103G U144G | ≤ -4.2
G11A A17G U31A U53G C54U A64G | ≤ -4.2
G11A A19U U56G U82C G84U C95U | ≤ -4.2
A12G U45G C69G A91C A115G G133A G143U | ≤ -4.2
A12G U55A G62A C105U G133A U139C | ≤ -4.2
G11C C35U A49C C96U | ≤ -4.2
A12G U15C A37G U44A U56A C69U C87U | ≤ -4.2
A12G A17G C93U A120G | -0.897
G11C A16U C32G C36U G65U G71C G86U U90A U104A U109G U144C | ≤ -4.2
G11U C85G U104G G141U | ≤ -4.2
G11A C43G U90C G94A | -4.13
A12C C32U U56C C87A A89U A106U U130G | ≤ -4.2
G11C A49C A52C U56A G59C C85U | ≤ -4.2
G11C A20U G48U U53G A73C G86A C116U | ≤ -4.2
C10U C118U | -2.81
A12G C76G U134A U146G | ≤ -4.2
A12C A17C G88U C149G | ≤ -4.2
G11U U15A G58U G59U G68U U77G C85G A113C A142U | ≤ -4.2
C10U C36U G81A C95A U146A | ≤ -4.2
A12G A30C U31C G59A C69A U139G U144G | ≤ -4.2
G11A A39C A52U C72U G86C C108A G124U U144A | ≤ -4.2
G11A A37C A52C U55A G83C | ≤ -4.2
C10U G34U G50A A66C G133C | ≤ -4.2

Variant | polymerase ribozyme fitness (log ratio)
G11U G46A C85U | -2.44
G11U C38A G83U U135C C149G | ≤ -4.2
A12U A19U C35A U61G C69U U78G G80C A97C G126U | ≤ -4.2
G11U A19C U55A G71A A91C G100A U109G A122U | ≤ -4.2
C10U C14G A19U A30U A47G C87G C93A A150U | ≤ -4.2
A12C C14U U55A A98G C103G G133A | ≤ -4.2
A12C U53C C57A G83C G84U G100U A120U | ≤ -4.2
A12G C38G C85A U151C G152U | ≤ -4.2
C10U A73C C85A | ≤ -4.2
G11A C14A U15G A16C A17C G42U C96U C131A G143A | ≤ -4.2
C10U U33C G58C G84U G86A A97U | ≤ -4.2
G11A A30C U31C G48A U56A U90G G92A G117U G140C U148A | ≤ -4.2
G11A U45A A66C C76A G88C G92C A121G G128C | ≤ -4.2
C10U A91U C96A A98U A142G U151C | ≤ -4.2
G11A A20U C87G C118U A150G | ≤ -4.2
A12C A28C C87A U134G | ≤ -4.2
G11C A12U C14A A28G A52C G62C U78A G112C | ≤ -4.2
A12G A20G C76G G81A G84U C118A | ≤ -4.2
G11U U56A A64G C118U A121U | ≤ -4.2
A12C G62A C105A | ≤ -4.2
G11A A12G A52U G59A A60C | ≤ -4.2
A12G C51U G74C A115G C123A G143U | ≤ -4.2
A12G C35G C63U C85A | ≤ -4.2
A12G A19C A20G A22C A28G A30G C57A G59A G84A U101G A115U G136U | ≤ -4.2

Variant | polymerase ribozyme fitness (log ratio)
G11U C93U A119C C149U | -3.06
G11U A24U C72U C85U U90A | ≤ -4.2
G11U A21U A30C G88C | ≤ -4.2
G11C A30U C87G G143U | ≤ -4.2
A12G U31C G133U G143A | ≤ -4.2
A12G C35G A47C A89U C123A U130G G143A | ≤ -4.2
G11A A40U C69U C118G C129A A142G | ≤ -4.2
G11C A52C G84C C85G G88A | ≤ -4.2
A12G A91G A106G | -2.04
G11C G83A G141U | -0.379
G11U A52U | -2.33
G11A C35U A40C A73C A91U U144G | ≤ -4.2
G11U G74U G81U G88C A89G C95U G128U U148A | ≤ -4.2
G11U A26C A28U G50A A66U C149G | ≤ -4.2
G11C A28U A40G G81U A89U C95U G141C | ≤ -4.2
G11U U13A C35U A49C C57U G92A A142U | ≤ -4.2
A12U A17G C35A U44A A47C A52U C95U G152U | ≤ -4.2
C10U U33A C69G C87A A98U U134A U148G | ≤ -4.2
C10U U13G C69U C103A G152U | ≤ -4.2
A12C C99A A119G U145C | -1.83
G11A C75G C93U | ≤ -4.2
A12G C85A C118A G136U | -3.83
G11C A23G A91G C95U A121G | -3.82
A12G U45A A52U C93A C118A A120U U145G | ≤ -4.2

Variant | polymerase ribozyme fitness (log ratio)
G11A C85U U109C C114U | ≤ -4.2
G11U A23U | ≤ -4.2
A12C U55G A97G C105U | -3.12
C10U C14G A39C A91G C95G C99U C105G A137G | ≤ -4.2
A12C A29U G42U C87U A91U U145C | ≤ -4.2
G11C G46C C57U C85U | -3.93
G11U A22U C35G C57A U61A A113G | ≤ -4.2
G11U A16C U31G G59U A91G C95G C125U G128U | ≤ -4.2
G11C A17U G46C C87G A142U | ≤ -4.2
A12G C54A G86C C87U G126A | ≤ -4.2
C10U C63U G71A C87U G152A | ≤ -4.2
G11C A16U A40C G80A C114U | ≤ -4.2
A12C A52U U53A C57G U61G G68C A119U G124C G141C | ≤ -4.2
G11A A28U C32U A47U C79A | ≤ -4.2
A12G G68U G80U G100A U135G U139A U144A | ≤ -4.2
G11U U13A U53A G92C C99G A137G | ≤ -4.2
A12C C93U | -2.17
A12G G50U C95G C99A C118A | ≤ -4.2
G11C U15A C87A C103G A106G C118U U146C | ≤ -4.2
G11A A21G G71U G84U A138U U151A | ≤ -4.2
A12G U151G | -4.06
A12G A22G A52C G74U G81C U82G C95G | ≤ -4.2
G11A G48C G92U | -0.981
G11C A20U C36U A60G C93G | ≤ -4.2

Variant | polymerase ribozyme fitness (log ratio)
G11U U33G A66C G84A G128U A137C U145A | ≤ -4.2
A12G A19U U45A U53A G88U | ≤ -4.2
A12G A49G U56A U61A G88A | ≤ -4.2
A12U A17U A22C G34C U55A U56A C57U A64C C95U | ≤ -4.2
A12C A24U G92C C108G U127G U146G | ≤ -4.2
G11C G50A G92U G143A | -4.01
G11A U61A U82G G84C | ≤ -4.2
A12U A17G C87G U135C | ≤ -4.2
A12G G42A U77A | ≤ -4.2
A12G C36U G94U A107C | ≤ -4.2
C10U C14U A23U C43U G46C C79A C87G C125A | ≤ -4.2
A12G A24U C87U | 0.648
C10U G50U C51G C93U C114U | ≤ -4.2
C10U G42U A64U C93A A106U C123U G140A | ≤ -4.2
A12C C27U G34U C63U C93A | -4.1
A12G A29G C54A G70U G71A C85A A113C | ≤ -4.2
C10U U134G | ≤ -4.2
A12G G50C U61G G88U C96U U134C | ≤ -4.2
A12U A16C C57G G81A U104G A115G | ≤ -4.2
A12C G50A C54A G65A A107C A137G | ≤ -4.2
A12G G25U G50U C76G C85A U127A | ≤ -4.2
G11U C51U A113U C132A U139G U146A | ≤ -4.2
A12C G48U U82C A89U G94U C108G G112U A122U | ≤ -4.2
A12G A41G C79G C85G C103U A120C U134C A150G | ≤ -4.2

Variant | polymerase ribozyme fitness (log ratio)
A12C C14A A24G A49G U82A C95G | ≤ -4.2
A12C C75G G86U G141A U146G U151G | ≤ -4.2
A12G A28C C63U G68A C85A C105A C114U C123G | ≤ -4.2
G11C C18G A24C A47G G68C G84A U104C G133U | ≤ -4.2
A12G U31A A60C G68U | ≤ -4.2
C10U C32U A49C U134C | ≤ -4.2
G11C C32G A49C G86A G88U G133A | ≤ -4.2
C10U U13C A17U C76A C105U | ≤ -4.2
G11U A20G A30U G50C G84U A120U | ≤ -4.2
A12C A21G C51U G83U | -2.15
A12C G34A G67A G84A G152U | ≤ -4.2
G11A U56G C79U C93A U109C G141C | ≤ -4.2
G11U U53A G71A C95U A138U | ≤ -4.2
A12C G46A U53A C57A C75U C129A | ≤ -4.2
G11U A17U A24U A28C A89C A91U G94U C99A U101A C118U A137C | ≤ -4.2
A12G G25A A40C U53A C85G C95A A97U G140U | ≤ -4.2
G11C A40C G83U A119G | -2.65
A12G A37G C87U U109G U144C U145C C149G | ≤ -4.2
C10U C32G U145C | -4.16
G11U C18G G58C A60C U78C G83A C96U A115C | ≤ -4.2
A12C A41C G50A G86U A137C C149A | ≤ -4.2
A12C U90G G92C | ≤ -4.2
A12G C51G A52C C63G | ≤ -4.2
G11A G59C C85G A89U C105U | ≤ -4.2

Variant | polymerase ribozyme fitness (log ratio)
G11A A16U A24U C85A A142C | ≤ -4.2
A12G U33G A40G A52U U53G G86A U134A | ≤ -4.2
G11U A12C A17C A22U A41G A73G U78A G92A A97G | ≤ -4.2
G11C A40G G84A A97C G126A | ≤ -4.2
A12C A20C A29U A49G G50C C69U C114A | ≤ -4.2
G11C A52C G94C U101A | ≤ -4.2
G11A C96A A97G G126U G140U | ≤ -4.2
G11C A29G A40U C76U C87U | ≤ -4.2
C10U G92A G141C | -3.99
A12G C18G A29G U44A C85U A121G | ≤ -4.2
A12C A29C A52G U56A C93A G141A | ≤ -4.2
A12C C57G C87A G124C C131U | ≤ -4.2
A12C A21U U53A G59C A60G G84A | -0.862
G11U U90A A119U G133C | ≤ -4.2
G11C G25C C35U A41U C63A G68A C87G G143C | ≤ -4.2
C10U C87U A115C U145G | ≤ -4.2
G11A C85A C114U | ≤ -4.2
A12C A16G U55A | -2.45
G11A G34A A41U U55G A106C | ≤ -4.2
G11U C14G A41U G71A G88U U101C C116A G143C | ≤ -4.2
A12G U45G A49U A60G U61G A107U U127G | ≤ -4.2
A12G A24U G50A C69U C79U C93G G100C C103G G141A | ≤ -4.2
C10U G88U | ≤ -4.2
